Results as given in patent US20220267410A1 (UNIVERSITAT STUTTGART, published 2022).

B1: scTNFR2(139)-Fc(Δab) (744) (Fc fusion)
chain: [about 150 residues not given here]GGGGSDKPVAHVVANPQAEGQLQWLNRRANALLANGVELRDNQLVVPSEGLYLIYSQVLFKGQGCPSTHVLLTHTISRIAVSYQTKVNLLSAIKSPCQRETPEGAEAKPWYEPIYLGGVFQLEKGDRLSAEINRPDYLNFRESGQVYFGIIALGGGGSDKPVAHVVANPQAEGQLQWLNRRANALLANGVELRDNQLVVPSEGLYLIYSQVLFKGQGCPSTHVLLTHTISRIAVSYQTKVNLLSAIKSPCQRETPEGAEAKPWYEPIYLGGVFQLEKGDRLSAEINRPDYLNFRESGQVYFGIIALGGSGGGGSGGDKTHTCPPCPAPPVAGPSVFLFPPKPKDTLMISRTPEVTCVVVDVSHEDPEVKFNWYVDGVEVHNAKTKPREEQYNSTYRVVSVLTVLHQDWLNGKEYKCKVSNKGLPSSIEKTISKAKGQPREPQVYTLPPSRDELTKNQVSLTCLVKGFYPSDIAVEWESNGQPENNYKTTPPVLDSDGSFFLYSKLTVDKSRWQQGNVFSCSVMHEALHNHYTQKSLSLSPGK
notes: Hexavalent dimer through the Fc(Δab) region; no His tag
B2: scTNFR2(118)-Fc(Δab) (745) (Fc fusion)
chain: [about 150 residues not given here]GGGGSSSRTPSDKPVAHVVANPQAEGQLQWLNRRANALLANGVELRDNQLVVPSEGLYLIYSQVLFKGQGCPSTHVLLTHTISRIAVSYQTKVNLLSAIKSPCQRETPEGAEAKPWYEPIYLGGVFQLEKGDRLSAEINRPDYLNFRESGQVYFGIIALGGGGSSSRTPSDKPVAHVVANPQAEGQLQWLNRRANALLANGVELRDNQLVVPSEGLYLIYSQVLFKGQGCPSTHVLLTHTISRIAVSYQTKVNLLSAIKSPCQRETPEGAEAKPWYEPIYLGGVFQLEKGDRLSAEINRPDYLNFRESGQVYFGIIALGGSGGGGSGGDKTHTCPPCPAPPVAGPSVFLFPPKPKDTLMISRTPEVTCVVVDVSHEDPEVKFNWYVDGVEVHNAKTKPREEQYNSTYRVVSVLTVLHQDWLNGKEYKCKVSNKGLPSSIEKTISKAKGQPREPQVYTLPPSRDELTKNQVSLTCLVKGFYPSDIAVEWESNGQPENNYKTTPPVLDSDGSFFLYSKLTVDKSRWQQGNVFSCSVMHEALHNHYTQKSLSLSPGK
notes: as for B1

Key:
TNFR2 on Kym-1 cells = target: T1, TNFR2 on Kym-1 cells (UniProt P20333 23-461, limits assumed); assay: cell-based or functional assay
T1 sequence (looked up): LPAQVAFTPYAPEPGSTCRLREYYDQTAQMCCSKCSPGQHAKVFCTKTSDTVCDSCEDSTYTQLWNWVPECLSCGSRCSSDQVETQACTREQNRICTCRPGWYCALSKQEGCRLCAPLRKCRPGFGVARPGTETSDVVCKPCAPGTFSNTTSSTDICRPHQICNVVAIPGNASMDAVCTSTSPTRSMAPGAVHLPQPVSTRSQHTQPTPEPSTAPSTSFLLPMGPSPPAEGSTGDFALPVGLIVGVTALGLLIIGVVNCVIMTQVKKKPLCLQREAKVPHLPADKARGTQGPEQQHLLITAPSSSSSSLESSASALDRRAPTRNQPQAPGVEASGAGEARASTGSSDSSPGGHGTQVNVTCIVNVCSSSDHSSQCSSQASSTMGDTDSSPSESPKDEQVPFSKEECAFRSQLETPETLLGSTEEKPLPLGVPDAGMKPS

[1] = target: T2, human TNFR2-Fc (etanercept) (human, UniProt P20333 23-257); assay: ELISA on coated etanercept, mean ± S.D., n = 3
T2 construct: Commercial drug coated on ELISA plates (200 ng/well); also called immobilized TNF-R2; not shown: Fc part of etanercept
T2 sequence (looked up): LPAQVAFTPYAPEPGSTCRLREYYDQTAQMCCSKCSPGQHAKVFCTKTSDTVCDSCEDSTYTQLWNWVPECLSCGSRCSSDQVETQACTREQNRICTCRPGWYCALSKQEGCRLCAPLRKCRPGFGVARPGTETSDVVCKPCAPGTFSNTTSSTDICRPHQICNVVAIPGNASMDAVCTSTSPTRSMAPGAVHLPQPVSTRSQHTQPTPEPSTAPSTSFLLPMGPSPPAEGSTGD
Procedure: The binding of the scTNFR2-Fc(Δab) complexes to TNFR2-Fc (etanercept) was analyzed by ELISA. 96-well ELISA plates were coated with 200 ng/well etanercept in coating buffer (0.1 M sodium carbonate, pH 9.5) overnight at 4° C., blocked with 2% skim milk in PBS (MPBS) and washed with washing buffer PBST (PBS, 0.05 Tween 20). ScTNFR2-Fc(Δab) complexes were titrated in duplicates and incubated on the plates for 2 h at room temperature, followed by washing with PBST. Receptor-bound complexes were detected with mouse anti-huTNFα F6C5 (Novus, 1 μg/ml) and goat anti-mouse IgG(Fc)-HRP (Sigma-Aldrich, 1:10,000), followed by extensive washing with PBST each.

[2] = target: T3, human TNFR2 on stably transfected cells (MEF-TNFR2, HeLa-TNF-R2) (human, UniProt P20333 23-461); assay: flow cytometry on HeLa-TNF-R2 cells after 3 days at 37 °C in 50% human blood plasma, experiment 4
T3 construct: whole, on cells; Same receptor on two transfected cell lines; the cell line is named under assay; also called human TNF receptor 2
T3 sequence (looked up): T1 sequence (looked up)
Procedure: (§1) FIG. 10: Stability of scTNFR2-Fc(Δab) complexes in human blood plasma. The integrity of the scTNFR2-Fc(Δab) complexes after incubation for 0 days (control), 3 days or 8 days in 50% human blood plasma at 37° C. was tested by their ability to bind HeLa-TNF-R2 cells in flow cytometry. The percentage of intact protein (mean±S. D., n=4) was calculated from reciprocals of the EC₅₀ values which were normalized to the non-incubated control (100%). Statistical analysis was performed by two-way ANOVA and Dunnett's post-test. Results were summarized as ****p <0.0001; ***p <0.001; **p <0.01; *p <0.05; n. s.=not significant.
(§2) The stability of the scTNFR2-Fc(Δab) proteins in human blood plasma after incubation periods of 3 and 8 days at 37° C. was assayed by binding of protein samples to HeLa cells stably overexpressing TNF-R2 (HeLa-TNF-R2, Richter et al., 2012, Mol. Cell Biol. 32, 2515-2529). […] After incubation, samples were stored at −80° C. and thawed prior testing the protein integrity by binding to HeLa-TNF-R2 in flow cytometry. […] Bound protein was detected with goat anti-human IgG Fcγ fragment specific-R-phycoerythrin antibody (Jackson ImmunoResearch, 1:500) for 1 h at 4° C. After two final washing steps with FACS buffer, cells were analyzed with a MACSQuant® VYB flow cytometer equipped with a 586/15 nm filter for detection of phycoerythrin.

[3] = target: T3, human TNFR2 on stably transfected cells …; assay: flow cytometry on HeLa-TNF-R2 cells after 8 days at 37 °C in 50% human blood plasma, experiment 2
Procedure: as §1, §2

[4] = target: T3, human TNFR2 on stably transfected cells …; assay: flow cytometry on HeLa-TNF-R2 cells after 8 days at 37 °C in 50% human blood plasma, experiment 3
Procedure: as §1, §2

[5] = target: T3, human TNFR2 on stably transfected cells …; assay: flow cytometry on HeLa-TNF-R2 cells after 0 days at 37 °C in 50% human blood plasma (control), experiment 1
Procedure: as §1, §2

[6] = target: T3, human TNFR2 on stably transfected cells …; assay: flow cytometry on HeLa-TNF-R2 cells after 0 days at 37 °C in 50% human blood plasma (control), experiment 4
Procedure: as §1, §2

Binder	EC50 on Kym-1 (cell death, crystal violet), without 80M2 (TNFR2 on Kym-1 cells) [nM]	EC50 [1] [nM]	EC50 [2] [nM]	EC50 [3] [nM]	EC50 [4] [nM]	EC50 [5] [nM]	EC50 [6] [nM]
B1	0.0595	0.309	0.0888	0.0567	0.0746	0.0548	0.0765
B2	0.0149	0.419	0.116	0.0666	0.0767	0.0731	0.0855
